Assay results from PubChem BioAssay AID1347043 (National Center for Advancing Translational Sciences (NCATS), 2019).
In all, about 76,000 compounds went through this assay and about 1,900 (2.5%) were called active. The shares of active, inactive and inconclusive entries below differ from those in the screen. Calls come from the whole dose curve; as a rule, active = well fitted inhibition curve with a large enough effect; inconclusive = small, poorly fitted or top-dose-only effect; inactive = flat fitted curve, though single readings scatter. Potencies of inconclusive entries are doubtful fits and often do not repeat.

target: Luciferin 4-monooxygenase (Photinus pyralis) (UniProt P08659); assay: Firefly luciferase inhibition profiling of diverse chemical library using quantitative high-throughput screening; note: nearly all actives have a fitted effect of over 65% in size; details: purified P. pyralis luciferase, luminescence, biochemical; activity change, negative = inhibition: at 115 µM (top of the series) unless noted
From the text: Firefly (Photinus pyralis) luciferase is one of the most commonly used transcriptional reporters for a number of reasons. It is considered one of the more dynamically responsive reporters - that is, responsive to changes in reporter transcription - as it requires no post-translational modifications and is enzymatically active directly after protein synthesis (Wood, 1998). Additionally, the half-life of the luciferase protein is short relative to other reporter-gene products (Wood, 1995). Whereas reporters with long half-lives potentially allow for increased signal due to accumulation of reporter-gene product, once accumulated in the cell, dynamic changes in reporter-gene expression may be difficult to detect(Fan and Wood, 2007; Almond et al., 2004). It has been shown that wild-type P. pyralis luciferase has a half-life of approximately four hours in mammalian cells (Thompson et al., 1991). Firefly luciferase reporter-gene assays are also generally considered one of the most sensitive assay types (Wood, 1995; Wood, 1998). Although light produced in a bioluminescence reaction is of lower intensity than that produced during fluorescence emission, this is offset by little to no background light inherent to luminescent assays. Thus the luciferase reporter can be expressed at much lower levels than fluorescent proteins while still providing robust signal. However, it was initially observed, in 1991, by Thompson et al., that compounds that resemble the substrates of firefly luciferase (FLuc) can act as competitive inhibitors of the enzyme, and that these compounds, upon interaction with luciferase in the cell, can actually stabilize the protein and increase its half-life. Accumulated intracellular FLuc protein can be measured as an increase in luminescence signal, upon addition of detection reagents (which contain high concentrations of FLuc substrates) commonly used in high-throughput screening. In cell-based reporter gene assays that use FLuc as the reporter gene to quantitate the potential influence of a given compound against the target biology, this apparent increase in luminescence can mistakenly be interpreted as identification of a compound that is active against the target of interest. FLuc inhibitory compounds that stabilize the FLuc protein will give an identical read-out, making it difficult to distinguish compounds that are active against the target from those active against FLuc. In summary, the results generated here constitutes a valuable resource for the scientific community and provides insight on identifying compounds with inhibitory activity for the commonly-used reporter, firefly luciferase. References: -Almond, B., Zdanovsky, A., Zdanovskaia, M., Ma, D., Stecha, P., Paguio, A., Garvin, D., and Wood, K. (2004). Introducing the Rapid Response Reporter Vectors. Promega Notes 87, 18-22. -Fan, F., and Wood, K.V. (2007). Bioluminescent assays for high-throughput screening. Assay Drug Dev Technol 5, 127-136. -Thompson, J.F., Hayes, L.S., and Lloyd, D.B. (1991). Modulation of firefly luciferase stability and impact on studies of gene regulation. Gene 103, 171-177. -Wood, K.V. (1998). The chemistry of bioluminescent reporter assays. Promega Notes 65, 14-20. -Wood, K.V. (1995). Marker proteins for gene expression. Curr Opin Biotechnol 6, 50-58.
Reagents: 50mM Tris acetate, pH 7.5; 10mM Mg acetate; 10uM D-luciferin (Sigma #L9504); 10uM ATP; 0.01% Tween-20; 0.05% BSA; 10nM P. pyralis luciferase (Sigma #L9506) Control compounds used were two known firefly luciferase inhibitors (compounds (2) and (5) in Auld et al., 2010), and DMSO. Assay Summary: Three microliters containing firefly luciferase substrates in buffer (final concentrations: 50mM Tris acetate, pH 7.5, 10mM Mg acetate, 0.01% Tween-20, 0.05% BSA, 10uM D-luciferin, and 10uM ATP) are dispensed into each well of a Greiner white, solid-bottom 1536-well format plate using a flying reagent dispenser (FRD). […]
% is set by controls: 0 for no effect and ±100 for the full control effect; tags give direction and shape of the fitted curve.

Sequence of UniProt P08659 (P08659 whole entry, looked up): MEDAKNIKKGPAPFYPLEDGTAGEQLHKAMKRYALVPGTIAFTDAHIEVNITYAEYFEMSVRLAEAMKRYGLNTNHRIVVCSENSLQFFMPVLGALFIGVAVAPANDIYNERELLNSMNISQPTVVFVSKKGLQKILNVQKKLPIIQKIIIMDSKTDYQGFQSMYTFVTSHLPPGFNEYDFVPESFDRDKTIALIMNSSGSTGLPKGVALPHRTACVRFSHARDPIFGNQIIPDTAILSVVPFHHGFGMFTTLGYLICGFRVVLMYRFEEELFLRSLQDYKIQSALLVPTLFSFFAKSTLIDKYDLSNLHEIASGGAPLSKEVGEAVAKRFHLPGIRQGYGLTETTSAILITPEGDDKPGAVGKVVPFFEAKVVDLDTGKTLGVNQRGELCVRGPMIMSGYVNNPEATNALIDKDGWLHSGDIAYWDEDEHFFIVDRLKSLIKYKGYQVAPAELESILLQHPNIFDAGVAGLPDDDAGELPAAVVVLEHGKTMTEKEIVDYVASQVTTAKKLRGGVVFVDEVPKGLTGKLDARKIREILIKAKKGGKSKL

| Compound | Potency | activity change, negative = inhibition |
| --- | --- | --- |
| COc1ccc(NC(=O)N2CCc3c(C(=O)Nc4ccccc4)cccc32)cc1 | inconclusive: 0.0891 µM [inhibitor, full curve, poor fit] | – |
| COCCNc1cc(-c2ccc3ccccc3n2)c2cc[nH]c2n1 | active: 10 µM | – |
| c1cncc(Nc2cc3c(cn2)CN(Cc2ccsc2)CCN3)c1 | active: 20 µM | – |
| COCCN1C(=O)CCC2(C(=O)NCCN(C)C3CCCCC3)CCCC=C12 (configuration not stated) | inconclusive: 44.7 µM [inhibitor, partial curve] | – |
| CN(C)c1ccc(-c2nnc([C@H]3CCN(CC4CCCCC4)C3)o2)cc1 | inconclusive: 79.4 µM [inhibitor, partial curve] | – |
| COc1ccc(NC(=O)N2CCC(Oc3ccc(-c4noc(C5CC5)n4)cc3)C2)cc1 (configuration not stated) | inconclusive: 39.8 µM [inhibitor, partial curve] | – |
| O=c1c2nc(N3CCC(c4ccccc4)CC3)ccc2ncn1-c1cccnc1 | inconclusive: 44.7 µM [inhibitor, partial curve] | – |
| CNC(=O)c1[nH]nc2c1C(c1cc(OC)ccc1-n1cccn1)CC(=O)N2 (configuration not stated) | – | inactive: 5.96% |
| COc1cccc(CN2CCc3c(cc(C(=O)Nc4cc(C)ccc4OC)n3C)C2)c1 | active: 8.91 µM | – |
| O=C(N[C@H]1CCN2C(=O)c3cc(-c4cccs4)ccc3NC(=O)[C@H]12)c1cccs1 | inconclusive: 63.1 µM [inhibitor, full curve] | – |
| CNc1nccc(N2CCC(CC(=O)N(C)CCCc3c(C)nn(C)c3C)CC2)n1 | – | inactive: 7.78% |
| CCc1cc(=O)n(CC(=O)Nc2cc(OC)ccc2OC)c(-c2ccccc2)n1 | – | inactive: -1.67% |
| Cn1cc(CN2CCNc3cc(-c4ccccc4)ncc3C2)cn1 | active: 44.7 µM | – |
| O=C(O)c1ccnc(-c2ccnc(NCCc3noc(C4CCC4)n3)n2)c1 | inconclusive: 44.7 µM [inhibitor, partial curve] | – |
| COc1ccc(-c2cc(N3CCCN(C(=O)Cc4cccc(OC)c4)CC3)n[nH]2)cc1 | – | inactive: -6.63% |
| CN1C[C@@H](NC(=O)CC(C)(C)CC(=O)O)C[C@H]1c1nc(-c2ccccn2)no1 | inconclusive: 79.4 µM [inhibitor, partial curve] | – |
| Cc1ccc(-c2nc(C(=O)NCc3ccc(F)cc3F)no2)cc1 | inconclusive: 44.7 µM [inhibitor, partial curve] | – |
| COc1ccc(-c2cc(N3CCCC(NC(=O)c4cc(F)ccc4Cl)C3)n[nH]2)cc1 (configuration not stated) | inconclusive: 39.8 µM [inhibitor, partial curve] | – |
| Oc1cccc(-c2cc(-c3cccnc3)c3cncn3c2)c1 | inconclusive: 141 µM [inhibitor, single point] | – |
| CCOc1ccc(CCNc2nc(-c3ccccc3)no2)cc1 | inconclusive: 50.1 µM [inhibitor, partial curve, poor fit] | – |
| CN(Cc1cccc(C(F)(F)F)c1)S(=O)(=O)c1cccs1 | – | inactive: -12.1% [at 172 µM] |

| Compound | Potency | activity change, negative = inhibition |
| --- | --- | --- |
| COCCc1noc(-c2nc(-c3ccc(OC)cc3)no2)n1 | inconclusive: 20 µM [inhibitor, full curve] | – |
| COCCN1C(=O)CCc2cc(NC(=O)c3ccc(OC(F)(F)F)cc3)ccc21 | inconclusive: 44.7 µM [inhibitor, partial curve] | – |
| Cc1cc(NC(=O)N(C)CC2CCOCC2)ccc1Br | inconclusive: 50.1 µM [inhibitor, partial curve] | – |
| O=C(c1ccsc1)N1CCCn2cc(-c3ccccc3)nc21 | active: 39.8 µM | – |
| c1ccc(-c2noc(-c3cncnc3NCc3ccc4c(c3)OCO4)n2)cc1 | inconclusive: 56.2 µM [inhibitor, partial curve, poor fit] | – |
| COc1ccccc1-c1ccc2ncn(C3CC3)c(=O)c2n1 | – | inactive: -8.84% [at 172 µM] |
| O=C(NC[C@H]1Cn2c(-c3ccc(F)cc3)cnc2CO1)c1cccnc1 | inconclusive: 126 µM [inhibitor, single point] | – |
| CN(C)C(=O)c1cccc2c1CCN2C(=O)Nc1ccc(F)cc1 | active: 12.6 µM | – |
| Cc1ccc(C2Cn3nnc(C(=O)N4CCC(C(=O)NCc5ccc(F)cc5F)CC4)c3CO2)cc1 (configuration not stated) | inconclusive: 50.1 µM [inhibitor, partial curve] | – |
| O=C(N[C@H]1CCN2C(=O)c3cc(-c4ccccc4F)ccc3NC(=O)[C@H]12)c1cccs1 | inconclusive: 79.4 µM [inhibitor, partial curve, poor fit] | – |
| CN1CCN(c2ccc(-c3cc4c(ccn4C)c(C(=O)NCc4cnccn4)n3)cc2)CC1 | inconclusive: 22.4 µM [inhibitor, full curve] | – |
| NC(=O)c1ccnc(-c2cc(NCc3ccccn3)nc3[nH]ccc23)c1 | inconclusive: 39.8 µM [inhibitor, partial curve] | – |
| Cc1cnc(NC(=O)c2ccc3c(c2)OCCN(c2ccccc2)C3)s1 | inconclusive: 31.6 µM [inhibitor, full curve] | – |
| O=C(c1cccc2[nH]ccc12)N1CC(Oc2cccc(-c3nc(-c4ccccc4)no3)c2)C1 | inconclusive: 11.2 µM [inhibitor, full curve] | – |
| Cc1ncoc1C(=O)N1CC[C@H](CO)[C@H](N(C)C)C1 | – | inactive: -8.31% |
| COC1CCN(C(=O)Cc2c[nH]c3ncc(-c4ccccc4)cc23)CC1 | inconclusive: 79.4 µM [inhibitor, partial curve] | – |
| CC1(COc2ccccc2)COc2ccc(C(=O)Nc3ccc4[nH]ccc4c3)cc2N1 (configuration not stated) | inconclusive: 112 µM [inhibitor, single point] | – |
| Cc1ccc(CNC(=O)C2CCN(C(=O)c3ncn4c3COC(c3ccc(F)cc3)C4)CC2)cc1 (configuration not stated) | inconclusive: 44.7 µM [inhibitor, partial curve] | – |
| COc1ccc(-c2noc([C@@H]3Cc4nc[nH]c4CN3C(=O)NC3CCCCC3)n2)cc1 | inconclusive: 63.1 µM [inhibitor, partial curve] | – |
| O=C(Nc1cccc(F)c1)C1CCN(C(=O)c2ncn3c2COC(c2ccccc2)C3)CC1 (configuration not stated) | active: 1 µM | – |
| Cc1ncsc1CCNC(=O)c1cn(CCC2CCCCN2)nn1 (configuration not stated) | inconclusive: 39.8 µM [inhibitor, partial curve, poor fit] | – |
